# Experimental data: PubChem BioAssay AID504845 (National Center for Advancing Translational Sciences (NCATS), 2011)
# Values joined by “and” are separate entries in the source; they are usually repeats but may differ in a detail not shown here. Equal entries are not always repeated. The campaign covered roughly 390,000 compounds. About 150 (0.038%) were called active. The inconclusive results got no clear call from the source; some entries with a clear call stand among them for comparison. The call rests on the fitted dose curve; in most records, active means well fitted inhibition curve with a large enough effect; inconclusive means small, poorly fitted or top-dose-only effect; inactive means no such curve, though single readings can be large or run the other way. A potency beside an inconclusive call is a rough fit, not a confirmed value.
# Target: Regulator of G-protein signaling 4 (Homo sapiens) (UniProt P49798)
# Chain of UniProt P49798 (P49798 whole entry, looked up): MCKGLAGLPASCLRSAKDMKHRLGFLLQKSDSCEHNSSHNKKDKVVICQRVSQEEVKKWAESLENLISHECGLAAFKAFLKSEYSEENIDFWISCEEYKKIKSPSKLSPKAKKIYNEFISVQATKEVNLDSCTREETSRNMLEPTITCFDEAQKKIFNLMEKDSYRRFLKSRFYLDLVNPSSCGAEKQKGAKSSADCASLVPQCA
# Test: Inhibitors of Regulator of G Protein Signaling (RGS) 4: qHTS; further: nearly all actives have a fitted effect of over 75% in size
# Settings: Transcreener GDP fluorescence polarization, RGS4-accelerated GTP hydrolysis; series mostly up to 114 µM; activity change, negative = inhibition: at the top concentration
# Procedure, shortened: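 MLSMR compounds (23 nl, pin-transferred) preincubated 10 min at room temperature with a 500nM (2x) first reagent, then RGS4 at 900nM (2x) plus Transcreener GDP mix added; fluorescence polarization (620/688 nm) read before and after 90 min at 30 °C.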
# On the % scale 0 is the no-effect control and ±100 the full control effect; potency means the concentration at half of the fitted maximal effect; tags describe the fitted curve by direction and shape.
Compound,"activity change, negative = inhibition",Potency
COc1ccccc1NC(=O)c1ccc(-n2cncn2)nc1,inactive: 7.3%,
COCc1cccc(C2=CC(=O)C[C@H](c3ccc(F)cc3)C2)c1,,"inconclusive: 79.4 µM [inhibitor, partial curve, poor fit]"
CCC(=O)Nc1cc2nn(-c3ccc(OC)cc3)nc2cc1C,inactive: -2.57%,
COc1ccc(-c2cc(-c3ccco3)[nH]c(=O)c2C#N)cc1OC,,"inconclusive: 79.4 µM [inhibitor, partial curve, poor fit]"
COc1ccccc1/C=C/C(=O)NCCc1ccccn1,inactive: -5.6%,
CC1CC2(CCCCC2)Nc2c1ccc1ccccc21 (stereo unspecified),,"inconclusive: 79.4 µM [inhibitor, single point]"
O=C(C1CCCN(Cc2cccnc2)C1)N1CCCCC1 (stereo unspecified),inactive: -16%,
COc1cc(/C=C2/SC(=S)NC2=O)ccc1OS(=O)(=O)c1ccc(C)cc1,,"inconclusive: 50.1 µM [inhibitor, partial curve, poor fit]"
CCC(=O)OC1(C)C(=O)C=C2C=C(c3ccsc3)OC=C2C1=O (stereo unspecified),,"inconclusive: 17.8 µM [inhibitor, full curve, poor fit]"
NS(=O)(=O)c1cccc(NC(=O)C2CC(=O)N(Cc3ccco3)C2)c1 (stereo unspecified),,"inconclusive: 56.2 µM [inhibitor, partial curve, poor fit]"
COc1ccc(CC(=O)NCc2n[nH]c(=S)n2-c2ccc(Br)cc2)cc1,,"inconclusive: 70.8 µM [inhibitor, single point]"
CCOc1c(Br)cc(C(N)=O)cc1OC,,"inconclusive: 79.4 µM [inhibitor, single point]"
O=C(O)C1CSC(c2ccco2)N1 (stereo unspecified),,"inconclusive: 79.4 µM [inhibitor, partial curve, poor fit]"
CCN(CC(=O)Nc1ccc(OC)cc1)C(=O)c1ccc([N+](=O)[O-])cc1,,"inconclusive: 44.7 µM [inhibitor, partial curve, poor fit]"
CCN(CCS(=O)(=O)c1ccc(Cl)cc1)Cc1nc2ccccc2c(=O)[nH]1,inactive: 6.69%,
Cc1ccccc1NC(=O)CSc1nnc(-c2ccco2)n1N,,"inconclusive: 25.1 µM [inhibitor, full curve, poor fit]"
COc1ccc(Cn2cc3c(-c4ccc(F)cc4)nnc-3c3cc(OC)c(OC)cc32)cc1,inactive: -3.05%,
C=CCOc1cccc(C(=O)/C=C2/C(=O)Nc3ccccc32)c1,,"inconclusive: 25.1 µM [inhibitor, full curve, poor fit]"
CCOC(=O)c1c(NC(=O)COc2ccc(Cl)cc2C)sc2c1CCCCC2,,"inconclusive: 35.5 µM [inhibitor, partial curve, poor fit]"
COc1cc(NC(=O)N2CCNC2=O)cc(C(=O)Nc2cccc(C(F)(F)F)c2)c1,inactive: -24.1%,
O=[N+]([O-])c1cc(S(=O)(=O)Nc2ccccc2)ccc1N1CCN(c2ccc(O)cc2)CC1,,"inconclusive: 17.8 µM [inhibitor, full curve, poor fit]"
O=C1C=C(c2ccc3[nH]ccc3c2)C[C@@H](c2ccc(Cl)cc2)C1,inactive: -26.9%,

Compound,"activity change, negative = inhibition",Potency
CCOC(=O)/C(=C/c1ccc(Cl)cc1)NC(=O)c1ccco1,,"inconclusive: 100 µM [inhibitor, partial curve, poor fit]"
C(=C\c1ccccc1)/CSc1nnc(-c2ccccn2)n1Cc1ccco1,inactive: -41.5%,
COc1cc(NC(=O)CSc2nc3ncccc3o2)cc(OC)c1,inactive: -10.9%,
O=C(Nc1ccc2oc(=O)ccc2c1)c1ccc(-c2ccc(Cl)cc2)o1,inactive: -9.72%,
Cc1cc(C)cc(NC(=O)CC23CC4CC(C2)CC(n2nnc(C)n2)(C4)C3)c1,,"inconclusive: 89.1 µM [inhibitor, single point]"
Cc1ccc(-c2ccccc2)n1-c1ccc(C(=O)O)cc1,,"inconclusive: 79.4 µM [inhibitor, partial curve, poor fit]"
CC1=CC2=NC(=O)/C(=C\c3ccc(-c4cccc(Cl)c4)o3)C(=N)N2O1,,"inconclusive: 50.1 µM [inhibitor, partial curve, poor fit]"
O=c1c2cccc(Cl)c2nc2n1Cc1ccccc1-2,,"inconclusive: 10 µM [inhibitor, full curve, poor fit]"
Cc1cc(C)c2c(c1)NC(C(=O)O)C1CC=CC21 (stereo unspecified),,"inconclusive: 50.1 µM [inhibitor, partial curve, poor fit] and inconclusive: 56.2 µM [inhibitor, partial curve, poor fit]"
O=C(Oc1nsnc1N1CCOCC1)c1ccccc1,,"inconclusive: 31.6 µM [inhibitor, full curve, poor fit]"
COc1cc(C(C2=C(O)CC(C)(C)CC2=O)C2C(=O)CC(C)(C)CC2=O)cc(OC)c1OC (stereo unspecified),,"inconclusive: 44.7 µM [inhibitor, partial curve, poor fit]"
O=C(c1ccco1)N1CCN(C(=O)C2CC(c3ccc(F)cc3)=NO2)CC1 (stereo unspecified),,"inconclusive: 79.4 µM [inhibitor, single point]"
COc1ccc(Cc2nn3c(Cn4nnc5ccccc54)nnc3s2)cc1,,"inconclusive: 79.4 µM [inhibitor, partial curve, poor fit]"
CC(C(=O)Nc1ccc(O)cc1)c1cccc(C(=O)c2ccccc2)c1 (stereo unspecified),,"inconclusive: 56.2 µM [inhibitor, partial curve, poor fit]"
COc1ccc(-c2noc(CCC(=O)NCCCN3CCN(c4ccccc4F)CC3)n2)cc1,inactive: 24.4%,
Cc1cccc(NC(=O)CSCC(=O)Nc2ccc(S(=O)(=O)N3CCCC3)cc2)c1,inactive: 20.4%,
Nc1nc(=S)c2ncn(C3CCCCC3)c2[nH]1,,"inconclusive: 39.8 µM [inhibitor, partial curve, poor fit]"
CC(C)CC(=O)NC(=S)NNC(=O)c1ccc(NC(=O)C2CCCCC2)cc1,,"inconclusive: 100 µM [inhibitor, single point]"
Cc1occc1-c1nnc(SCC(=O)c2ccc3c(c2)OCCO3)n1CC1CCCO1 (stereo unspecified),,"inconclusive: 79.4 µM [inhibitor, partial curve, poor fit]"
O=C(Nc1nncs1)C(Sc1ccccc1)c1ccccc1 (stereo unspecified),inactive: -34.1%,
CCCCC/C=C/C=C1/C(=O)C=C[C@@H]1C/C=C\CCCC(=O)O,,"inconclusive: 2.99 µM [inhibitor, partial curve, poor fit]"
COc1cccc2sc(Nc3nnc(-c4ccc(F)cc4)o3)nc12,,"inconclusive: 89.1 µM [inhibitor, single point]"

Compound,"activity change, negative = inhibition",Potency
O=C(Cn1c(=O)oc2ccccc21)Nc1n[nH]c(=S)s1,,"inconclusive: 10 µM [inhibitor, full curve, poor fit]"
N[C@@H](CS(=O)O)C(=O)O,,"inconclusive: 37.7 µM [inhibitor, partial curve, poor fit]"
Cc1cc(=O)[nH]c(N/N=C/C2=C(N3CCOCC3)C(=C\c3ccc(Cl)cc3)/CC2)n1,,"inconclusive: 112 µM [inhibitor, partial curve, poor fit]"
Clc1ccc(SCCN2CCNCC2)cc1,inactive: 0.841%,
N[C@H](COP(=O)(O)O)C(=O)O,,"inconclusive: 0.238 µM [inhibitor, full curve, poor fit]"
Cc1ccc(NC(=O)CSc2ncc(-c3ccccc3)n2C(=O)c2ccccc2)cc1,,"inconclusive: 79.4 µM [inhibitor, single point]"
O=C(COC(=O)c1ccccc1Cl)NC1CCCCCCC1,,"inconclusive: 70.8 µM [inhibitor, partial curve, poor fit]"
O=C1NC(=Nc2ccccc2Cl)S/C1=C\c1cc([N+](=O)[O-])ccc1O,,"inconclusive: 50.1 µM [inhibitor, partial curve, poor fit]"
NC(=O)c1ccc(OCc2ccccc2)nc1,,"inconclusive: 100 µM [inhibitor, single point]"
CCCCCC(=O)NC(=S)NNC(=O)c1ccc([N+](=O)[O-])cc1,,"inconclusive: 44.7 µM [inhibitor, partial curve, poor fit]"
COCCNC(=O)CSc1nc2ccc(N3CCOCC3)cc2c(=O)n1Cc1ccc(OC)cc1,,"inconclusive: 89.1 µM [inhibitor, single point]"
COc1ccc(-c2nc(=S)[nH][nH]2)cc1OC,,"inconclusive: 70.8 µM [inhibitor, partial curve, poor fit]"
O=C(CNC(=O)c1cnccc1C(F)(F)F)c1cccc(Cl)c1,inactive: -20%,
CCn1ncc(Br)c1C(=O)Nc1sc2c(c1C(N)=O)CCC2,,"inconclusive: 100 µM [inhibitor, single point]"
CC1CN(C)C(c2ccccc2)C(C)C12NC(=O)NC2=O (stereo unspecified),,"inconclusive: 89.1 µM [inhibitor, single point]"
Cc1ccc(C(=O)NNC(=O)c2cccc(Br)c2)cc1,inactive: 13%,
COc1ccc(N2CSC3=C(C#N)C(c4cccc(OC)c4OC)CC(=O)N3C2)cc1 (stereo unspecified),,"inconclusive: 31.6 µM [inhibitor, full curve, poor fit]"
Cc1ccc(C2(C)NC(=O)N(CC(=O)c3ccc(Cl)s3)C2=O)cc1 (stereo unspecified),inactive: 6.81%,
Cc1cccc(NC(=S)NNC(=O)COc2ccc(Cl)cc2Cl)c1,,"inconclusive: 79.4 µM [inhibitor, partial curve, poor fit]"
CC(C)Oc1ccc(/C=N/NC(N)=S)cc1,,"inconclusive: 79.4 µM [inhibitor, partial curve, poor fit]"
Cc1ccc(S(=O)(=O)N(C)Cc2ccc(C(=O)N/N=C/c3ccc(OC(F)F)cc3)cc2)cc1,inactive: -22.2%,
Cc1cc(C)cc(NC(=O)Nc2cc(S(=O)(=O)N(C)C)ccc2C)c1,inactive: 14.5%,
